From article PMC8694192, “Synthesis and biological evaluation of new derivatives of thieno-thiazole and dihydrothiazolo-thiazole scaffolds integrated with a pyrazoline nucleus as anticancer and multi-targeting kinase inhibitors” (RSC Advances, 2021) come the findings set out here.

The test system of this assay is MCF-7 cells. Description: DNA-flow cytometric cell cycle analysis (PI staining). Type of assay: cell-based, human. Conditions: MCF-7, 24 h, 4.021 μM for compound 1, 8.35 μM for 3c. The protocol:
More details in the ESI. ^†
DMSO was utilized as a negative control. The stages of cell cycle were being detected via flow cytometry after propidium iodide (PI) staining followed by RNAse treatment.[63] In this experiment, MCF-7 cells were incubated with a concentration of 4.021 μM for compound 1 and with 8.35 μM for compound 3c for 24 h. The flow cytometry approach was used to quantify cell populations at various stages of the cell cycle (pre-G1, G1, S and G2/M phases).
screening of final compounds.
using 1 μM concentration of ATP.
1.2.4. Annexin V-FITC apoptosis assay
Briefly, cells were seeded
For orientation: A flow cytometer gives signals particle by particle.

With `Cc1c(Nc2nc3c(C(=O)NN)c(N)sc3s2)c(=O)n(-c2ccccc2)n1C` [Compound 3c, 5-Amino-2-((1,5-dimethyl-3-oxo-2-phenyl-2,3-dihydro-1H-pyrazol-4-yl)amino) thieno[3,2-d]thiazole-6-carbohydrazide], the “percentage of cells at G2/M” value is recorded as 3.38% and the “percentage of cells at S phase” value came out at 35.18%.
